# Reference: the supplement of paper PMC8728848
# This is one part of the list.
# What was measured:
# Assay in all cases: glycan array binding signal (z-score within array); higher = stronger binding
# Conditions in all cases: glycan notation: IUPAC condensed, linker removed
# [1] = target: Gal3S(b1-3)[Fuc(a1-4)]GlcNAc
# Summary of the method: (§1)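 The binding signal is a Z-score computed within each array and averaged over linkers. Arrays of the same protein sequence at different concentrations or buffers were also averaged together. Data originate from 3228 arrays in the Consortium for Functional Glycomics database, kept only where the protein sequence was available.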
# Gal3S(b1-4)Glc = target: Gal3S(b1-4)Glc
# Summary of the method: as §1
# Gal3S(b1-4)Glc6S = target: Gal3S(b1-4)Glc6S
# Summary of the method: as §1
# Gal3S(b1-4)GlcNAc = target: Gal3S(b1-4)GlcNAc
# Summary of the method: as §1
# [2] = target: Gal3S(b1-4)[Fuc(a1-3)]Glc6S
# Summary of the method: as §1
# [3] = target: Gal3S(b1-4)[Fuc(a1-3)]GlcNAc
# Summary of the method: as §1
# [4] = target: Gal3S(b1-4)[Fuc(a1-3)]GlcNAc6S
# Summary of the method: as §1
# Gal3S4S(b1-4)GlcNAc = target: Gal3S4S(b1-4)GlcNAc
# Summary of the method: as §1
# Gal3S6S(b1-4)GlcNAc = target: Gal3S6S(b1-4)GlcNAc
# Summary of the method: as §1
# Gal3S6S(b1-4)GlcNAc6S = target: Gal3S6S(b1-4)GlcNAc6S
# Summary of the method: as §1
# Gal4S(b1-4)GlcNAc = target: Gal4S(b1-4)GlcNAc
# Summary of the method: as §1
# Gal4S6S(b1-4)GlcNAc = target: Gal4S6S(b1-4)GlcNAc
# Summary of the method: as §1
# Gal6P(b1-4)GlcNAc = target: Gal6P(b1-4)GlcNAc
# Summary of the method: as §1
# Gal6S(b1-3)GlcNAc = target: Gal6S(b1-3)GlcNAc
# Summary of the method: as §1
# Gal6S(b1-3)GlcNAc6S = target: Gal6S(b1-3)GlcNAc6S
# Summary of the method: as §1
# Gal6S(b1-4)Glc = target: Gal6S(b1-4)Glc
# Summary of the method: as §1
# Gal6S(b1-4)Glc6S = target: Gal6S(b1-4)Glc6S
# Summary of the method: as §1
# Gal6S(b1-4)GlcNAc = target: Gal6S(b1-4)GlcNAc
# Summary of the method: as §1
# Gal6S(b1-4)GlcNAc6S = target: Gal6S(b1-4)GlcNAc6S
# Summary of the method: as §1
# GalNAc(a1-3)Gal = target: GalNAc(a1-3)Gal
# Summary of the method: as §1
# GalNAc(a1-3)GalNAc = target: GalNAc(a1-3)GalNAc
# Summary of the method: as §1
# [5] = target: GalNAc(a1-3)GalNAc(b1-3)Gal(a1-4)Gal(b1-4)Glc
# Summary of the method: as §1
# [6] = target: GalNAc(a1-3)GalNAc(b1-3)Gal(a1-4)Gal(b1-4)GlcNAc
# Summary of the method: as §1
# GalNAc(b1-3)Gal = target: GalNAc(b1-3)Gal
# Summary of the method: as §1
# [7] = target: GalNAc(b1-3)Gal(a1-4)Gal(b1-4)GlcNAc
# Summary of the method: as §1
# [8] = target: GalNAc(b1-3)Gal(a1-4)Gal(b1-4)GlcNAc(b1-3)Gal(b1-4)Glc
# Summary of the method: as §1
# [9] = target: GalNAc(b1-3)Gal(a1-6)Gal(b1-4)Glc
# Summary of the method: as §1
# GalNAc(b1-3)GalNAc = target: GalNAc(b1-3)GalNAc
# Summary of the method: as §1
# GalNAc(b1-3)GlcNAc = target: GalNAc(b1-3)GlcNAc
# Summary of the method: as §1
# GalNAc(b1-4)Gal(b1-4)Glc = target: GalNAc(b1-4)Gal(b1-4)Glc
# Summary of the method: as §1
# GalNAc(b1-4)GlcNAc = target: GalNAc(b1-4)GlcNAc
# Summary of the method: as §1
# [10] = target: GalNAc(b1-4)GlcNAc(b1-2)Man
# Summary of the method: as §1
# [11] = target: GalNAc(b1-4)GlcNAc(b1-2)Man(a1-3)[GalNAc(b1-4)GlcNAc(b1-2)Man(a1-6)]Man(b1-4)GlcNAc(b1-4)GlcNAc
# Summary of the method: as §1
# [12] = target: GalNAc(b1-4)GlcNAc(b1-3)GalNAc(b1-4)GlcNAc
# Summary of the method: as §1
# GalNAc(b1-4)GlcNAc6S = target: GalNAc(b1-4)GlcNAc6S
# Summary of the method: as §1
# GalNAc(b1-6)GalNAc = target: GalNAc(b1-6)GalNAc
# Summary of the method: as §1
# GalNAc3S(b1-4)GlcNAc = target: GalNAc3S(b1-4)GlcNAc
# Summary of the method: as §1
# GalNAc3S(b1-4)GlcNAc3S = target: GalNAc3S(b1-4)GlcNAc3S
# Summary of the method: as §1
# [13] = target: GalNAc3S(b1-4)[Fuc(a1-3)]GlcNAc
# Summary of the method: as §1
# GalNAc4S6S(b1-4)GlcNAc = target: GalNAc4S6S(b1-4)GlcNAc
# Summary of the method: as §1
# GalNAc6S(b1-4)GlcNAc = target: GalNAc6S(b1-4)GlcNAc
# Summary of the method: as §1
# Glc(a1-4)Glc = target: Glc(a1-4)Glc
# Summary of the method: as §1
# [14] = target: Glc(a1-4)Glc(a1-4)Glc(a1-4)Glc
# Summary of the method: as §1
# Glc(a1-6)Glc(a1-6)Glc = target: Glc(a1-6)Glc(a1-6)Glc
# Summary of the method: as §1
# [15] = target: Glc(a1-6)Glc(a1-6)Glc(a1-6)Glc
# Summary of the method: as §1
binder,measurement,setting,value
"CFEM-PPl (Pichia pastoris), F2QPV1 (protein) AVATPPACLLACAAEVVKESSDCDALNNIQCICENEGSAIHACLESTCPDGLSSTALQSFEDVCESVGTEANLDE",glycan array binding signal (z-score),[1],-0.247
same,glycan array binding signal (z-score),Gal3S(b1-4)Glc,-0.281
same,glycan array binding signal (z-score),Gal3S(b1-4)Glc6S,-0.086
same,glycan array binding signal (z-score),Gal3S(b1-4)GlcNAc,-0.165
same,glycan array binding signal (z-score),[2],0.302
same,glycan array binding signal (z-score),[3],-0.308
same,glycan array binding signal (z-score),[4],-0.288
same,glycan array binding signal (z-score),Gal3S4S(b1-4)GlcNAc,-0.257
same,glycan array binding signal (z-score),Gal3S6S(b1-4)GlcNAc,-0.303
same,glycan array binding signal (z-score),Gal3S6S(b1-4)GlcNAc6S,-0.019
same,glycan array binding signal (z-score),Gal4S(b1-4)GlcNAc,-0.282
same,glycan array binding signal (z-score),Gal4S6S(b1-4)GlcNAc,-0.217
same,glycan array binding signal (z-score),Gal6P(b1-4)GlcNAc,-0.15
same,glycan array binding signal (z-score),Gal6S(b1-3)GlcNAc,-0.164
same,glycan array binding signal (z-score),Gal6S(b1-3)GlcNAc6S,-0.035
same,glycan array binding signal (z-score),Gal6S(b1-4)Glc,0.163
same,glycan array binding signal (z-score),Gal6S(b1-4)Glc6S,1.43
same,glycan array binding signal (z-score),Gal6S(b1-4)GlcNAc,0.191
same,glycan array binding signal (z-score),Gal6S(b1-4)GlcNAc6S,0.881
same,glycan array binding signal (z-score),GalNAc(a1-3)Gal,-0.296
same,glycan array binding signal (z-score),GalNAc(a1-3)GalNAc,-0.327
same,glycan array binding signal (z-score),[5],-0.317
same,glycan array binding signal (z-score),[6],-0.223
same,glycan array binding signal (z-score),GalNAc(b1-3)Gal,-0.325
same,glycan array binding signal (z-score),[7],-0.405
same,glycan array binding signal (z-score),[8],-0.277
same,glycan array binding signal (z-score),[9],-0.307
same,glycan array binding signal (z-score),GalNAc(b1-3)GalNAc,-0.264
same,glycan array binding signal (z-score),GalNAc(b1-3)GlcNAc,-0.373
same,glycan array binding signal (z-score),GalNAc(b1-4)Gal(b1-4)Glc,-0.013
same,glycan array binding signal (z-score),GalNAc(b1-4)GlcNAc,-0.06
same,glycan array binding signal (z-score),[10],-0.202
same,glycan array binding signal (z-score),[11],-0.27
same,glycan array binding signal (z-score),[12],-0.316
same,glycan array binding signal (z-score),GalNAc(b1-4)GlcNAc6S,-0.241
same,glycan array binding signal (z-score),GalNAc(b1-6)GalNAc,-0.207
same,glycan array binding signal (z-score),GalNAc3S(b1-4)GlcNAc,-0.362
same,glycan array binding signal (z-score),GalNAc3S(b1-4)GlcNAc3S,-0.247
same,glycan array binding signal (z-score),[13],-0.207
same,glycan array binding signal (z-score),GalNAc4S6S(b1-4)GlcNAc,-0.229
same,glycan array binding signal (z-score),GalNAc6S(b1-4)GlcNAc,-0.186
same,glycan array binding signal (z-score),Glc(a1-4)Glc,-0.201
same,glycan array binding signal (z-score),[14],-0.277
same,glycan array binding signal (z-score),Glc(a1-6)Glc(a1-6)Glc,-0.28
same,glycan array binding signal (z-score),[15],-0.232
